Results reported in PubChem BioAssay AID1508642 (National Center for Advancing Translational Sciences (NCATS), 2021).
In all, about 43,000 compounds went through this assay and about 200 (0.47%) were called active. Not shown: some 12% with an inconclusive outcome. Calls come from the whole dose curve; as a rule, active = well fitted cell-killing curve with a large enough effect; inconclusive = small, poorly fitted or top-dose-only effect, or effect the other way; inactive = flat fitted curve, though single readings scatter. This is one part of the list.

Assay: Cell viability qHTS assay in S16 Pmp22-F2sN cells; note: nearly all actives have a fitted effect of over 65% in size
Settings: S16 Pmp22-F2sN Schwann cells (luciferase reporters placed in the Pmp22 gene) viability, CellTiter-Glo, 24 h; series mostly up to 57.5 µM; activity change, negative = cytotoxicity: at the top concentration
Outline: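 Seed 500-1,000 S16 Pmp22-F2sN cells per well in phenol-red-free DMEM with 10% heat-inactivated FBS; pin-add 23 nL compound; incubate 24 h at 37C; add CellTiter-Glo, wait 15 min protected from light; read luminescence.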
% is set by controls: 0 for no effect and ±100 for the full control effect; potency is the fitted concentration of half-maximal effect.

SMILES	activity change, negative = cytotoxicity	Potency
CCOc1ccc(CCNC(=O)CN2C(=O)COc3ccc(S(=O)(=O)N4CCC(C)CC4)cc32)cc1	inactive: 2.36%	–
Cc1ccc(NC(=O)CCn2cccn2)cc1Cl	inactive: 0.784%	–
O=S(=O)(c1ccccc1)c1nnn2c1nc(NCc1cccs1)c1sccc12	inactive: 2.41%	–
Cc1ccc2oc(C(=O)Nc3c(C(=O)Nc4ccccc4)oc4ccccc34)cc(=O)c2c1	inactive: -3.09%	–
CCCOc1ccc(N2CC(C(=O)Nc3cccc(Cl)c3Cl)CC2=O)cc1 (stereo not given)	inactive: 1.58%	–
CCCCN(C)c1nnc(NC(=O)Nc2cccc(C(C)=O)c2)s1	inactive: -7.56%	–
COC(=O)c1c(NC(=O)c2cc3nc(-c4ccc(OC)cc4)cc(C(F)(F)F)n3n2)sc2c1CCCC2	inactive: 6.91%	–
Cc1ccc(NC2=CC(c3ccccc3F)N(c3ccc(C)cc3)C2=O)cc1 (stereo not given)	inactive: -9.7%	–
COc1ccc(NC(=O)Cn2c(=O)n(-c3ccccc3)c(=O)c3c4c(sc32)CCCC4)cc1	inactive: 0.88%	–
O=C(Cc1ccccc1)Nc1sc2c(c1C(=O)Nc1ccccc1Cl)CCC2	inactive: 0.831%	–
COc1ccc(-c2cc(NCc3ccc(F)cc3)n3cnnc3n2)cc1	inactive: -2.07%	–
Cc1ccc(NC(=O)CCc2nnc3n(CC(C)C)c(=O)c4ccccc4n23)cc1C	inactive: 8.13%	–
CCCN1C(=O)C(Cc2nc3ccccc3c(=O)n2CC)c2ccccc21 (stereo not given)	inactive: -4.22%	–
CCCc1cc(N2CCN(c3cc(Cl)ccc3C)CC2)n2cnnc2n1	inactive: -25.7%	–
COc1ccc(CNC(=O)Cn2nc(C)c3nn(-c4ccc(Cl)cc4)c(C)c3c2=O)cc1	inactive: 8.78%	–
O=C(COc1ccccc1)NCCc1csc(-c2ccc(Cl)cc2)n1	inactive: 8.46%	–
COc1cccc(Cn2c(CNS(=O)(=O)c3ccc(F)c(Cl)c3)nc3cccnc32)c1	inactive: -7.3%	–
CCc1nn2c(=O)cc(COc3ccc(/C=C(\C#N)C(=O)Nc4ccc(F)cc4)cc3OC)nc2s1	inactive: 3.6%	–
CC(C)COc1ccc(C(=O)Nc2cc3nn(-c4ccccc4)nc3cc2Cl)cc1	inactive: 10.6%	–
CCOC(=O)c1[nH]c2c(c1Cc1ccccc1C)C(=O)CC(c1cc(OC)ccc1OC)C2 (stereo not given)	inactive: 2.36%	–
CN1C(=O)Cc2cc(S(=O)(=O)N3CCN(c4ccc(Cl)cc4)CC3)ccc21	inactive: 12.9%	–
CCn1c2ccccc2c2nnc(SCC(=O)Nc3ccccc3OC)nc21	inactive: 2.5%	–
CCOc1ccccc1CNC(=O)c1cc(-c2ccc(Cl)s2)nc2ccccc12	inactive: -2.09%	–
CCOC(=O)c1ccc(NC(=O)C2CCN(S(=O)(=O)c3ccc4c(c3)CCCC(=O)N4)CC2)cc1	inactive: 16.7%	–

SMILES	activity change, negative = cytotoxicity	Potency
Cc1ccccc1-c1nn2c(=O)cc(CN3CCN(C(=O)/C=C/c4ccccc4)CC3)nc2s1	inactive: -2.84%	–
CCc1ccc(NC(=O)Cn2c(=O)n(CCC(=O)N3CCc4ccccc4C3)c(=O)c3ccccc32)cc1	inactive: 6.74%	–
O=S(=O)(NCC(c1cccs1)S(=O)(=O)c1ccccc1)c1ccc(F)cc1 (stereo not given)	–	active: 20 µM
CCOc1ccc(NC(=O)c2c(NCc3cccnc3)sc3c2CCCC3)cc1	inactive: 5.61%	–
CCOC(=O)c1ccc(CN(Cc2ccc(F)cc2)S(=O)(=O)c2ccc(F)c(C(=O)Nc3ccc(Cl)cc3F)c2)cc1	inactive: 1.22%	–
COc1cccc(N2CCN(C(=O)c3cccc(-n4c(C)nc5cccnc54)c3)CC2)c1	inactive: -16.6%	–
O=S(=O)(Nc1ccc(Br)cc1F)c1ccc2nc(-c3ccccc3)[nH]c2c1	inactive: -14.8%	–
CC1CCc2c(sc3nc(-c4cc5cc(Br)ccc5oc4=O)[nH]c(=O)c23)C1 (stereo not given)	inactive: -3.55%	–
O=C(CCS(=O)(=O)c1cccc2nonc12)Nc1c(F)cccc1F	inactive: -0.83%	–
C=Cc1ccc(Cn2c(C(=O)O)c(CNC3CCCCC3)c3ccc(C)cc32)cc1	inactive: 1.52%	–
Cc1cc(C)c(NC(=O)Cn2cc(S(=O)(=O)Cc3ccccc3F)c3ccccc32)c(C)c1	inactive: 0.474%	–
COC(=O)c1c(NC(=O)c2cc3ccccc3c(=O)o2)sc2c1CCCC2	inactive: 1.5%	–
Cc1cccc(C)c1OCC(=O)Nc1ncn[nH]1	inactive: 3.17%	–
CCN(CC)CCNC(=O)c1c(C)oc2ncnc(N3CCOCC3)c12	inactive: -2.33%	–
CCOc1ccc(CCNC(=O)c2cnc3sc(N(CC)CC)nn3c2=O)cc1OCC	inactive: 4.35%	–
O=C(NCCc1ccccc1)c1ccc2c(c1)N(Cc1ccc(F)cc1)C(=O)c1ccccc1S2(=O)=O	inactive: -19.4%	–
Cc1cccc(N(CC(O)Cn2c3ccccc3c3ccccc32)S(=O)(=O)c2ccc(F)cc2)c1 (stereo not given)	inactive: 0.921%	–
CC(C)c1ccc(NC(=O)c2cc3sc(Cl)cc3n2C)cc1	inactive: -1.56%	–
COc1ccccc1NC(=O)N(Cc1nnc2n1CCCCC2)c1ccc(F)cc1	inactive: 21.2%	–
CC(=O)c1cccc(NC(=O)C(C)n2c(=O)cc(C)c3c(C)nn(-c4ccccc4)c32)c1 (stereo not given)	inactive: 19.6%	–
COc1ccc(NC(=O)Cn2nnc(C(=O)NCCc3ccccc3)c2N)cc1	inactive: 4.34%	–
COc1ccc(OC)c(CNS(=O)(=O)c2ccc3c(c2)CCCN3C(C)=O)c1	inactive: -3.11%	–
Cc1ccccc1S(=O)Cc1ccc(C(=O)N2CCN(c3cccc(C)c3C)CC2)o1 (stereo not given)	inactive: -25.3%	–
Cc1ccc2onc(CC(=O)N3CCN(c4ccc(F)cc4)CC3)c2c1	inactive: 1.19%	–

SMILES	activity change, negative = cytotoxicity	Potency
CC(C)CC(=O)N1c2nc(C(C)C)nn2C2(CCCCC2)[C@@H]2CCCC[C@@H]21	inactive: 2.04%	–
Cc1ccc(-c2c(CN3CCN(c4cccc(C)c4)C(C)C3)csc2C)cc1 (stereo not given)	inactive: 19.5%	–
O=C(NCc1ccco1)c1ccc2c(c1)N(Cc1ccccc1)C(=O)c1ccccc1S2(=O)=O	inactive: -1.82%	–
COCCNc1ncnc2c1c(-c1ccccc1)cn2-c1ccc(C)c(Cl)c1	inactive: 19.1%	–
NCc1nc2cccnc2n1Cc1ccccc1Cl	inactive: 10.5%	–
Cc1ccc(CNC(=O)c2oc3c(c2C)-c2nn(Cc4ccc(Cl)cc4)cc2CC3)cc1	inactive: -5.33%	–
Cc1cc(S(=O)(=O)C(CNC(=O)c2ccc(OC(C)C)cc2)c2cccs2)ccc1F (stereo not given)	inactive: -24.5%	–
COc1ccc(-n2ncc3c(NC(C)(C)CO)ncnc32)cc1	inactive: 9.38%	–
CCOc1ccc(NC(=O)Cn2c3ncccc3c(=O)n2-c2ccc(CC)cc2)cc1	inactive: -0.829%	–
COc1ccc(NC(=O)Cn2c(=O)c(-c3cc(C)ccc3NC(C)=O)nc3ccccc32)c(OC)c1	inactive: 15.9%	–
Cc1cc(C)cc(NC(=O)C(=O)NCC(c2ccc3c(c2)OCO3)N2CCN(C)CC2)c1 (stereo not given)	inactive: -4.48%	–
CCCN(Cc1cccs1)C(=O)Nc1ccc(OCC)cc1	inactive: 8.17%	–
CCOC(=O)CNc1nc(Oc2ccc(=O)n(C)n2)nc(N(CC)CC)n1	inactive: 13.6%	–
COc1ccc(N2CCN(Cc3nc4c(c(=O)[nH]c(=O)n4C)n3Cc3ccc(Cl)cc3)CC2)cc1	inactive: -1.84%	–
Cc1cccc(-c2nc(SCC(=O)N3CCc4ccccc43)c3c(=O)n(C)c(=O)n(C)c3n2)c1	inactive: -0.42%	–
CCC(=O)Nc1cc(-c2cccc(C)c2)nn1-c1ccccc1	inactive: 11.5%	–
COc1cccc2c1ncc1c(-c3ccc(C)cc3)nn(-c3cccc([N+](=O)[O-])c3)c12	inactive: -1.87%	–
Cc1cccc(-c2nnc(SCc3cc(=O)c4cccc(Cl)c4[nH]3)n2C)c1	inactive: -24.6%	–
CCOc1ccc(-n2c(SCC(=O)N3CCc4ccccc43)nc3c([nH]c4ccccc43)c2=O)cc1	inactive: 12.5%	–
COc1ccc(OC)c(NC(=O)c2cc(-c3ccc(Cl)s3)nc3ccccc23)c1	inactive: 3.19%	–
O=C(COc1ccccc1)NCc1ccc2c(c1)CCN2C(=O)c1ccc(Cl)cc1	inactive: 3.11%	–
COc1ccc(NC(=O)N(CCC(C)C)C(C)c2cccs2)c(OC)c1 (stereo not given)	inactive: 0.564%	–
Cc1cc(=O)[nH]c2nnc(SCC(=O)Nc3ccc(OC(F)(F)F)cc3)n12	inactive: -2.62%	–
COc1ccc(C2C(C(N)=O)=C(C)Nc3nc(SCc4ccccc4Cl)nn32)cc1OC (stereo not given)	inactive: 0.335%	–

SMILES	activity change, negative = cytotoxicity	Potency
CCOc1ccc(C(=O)NCc2nc3cccnc3n2Cc2ccc(F)cc2)cc1OCC	inactive: -1.14%	–
Cc1sc2c(c1C)c(=O)n(-c1ccc(Cl)cc1)c(=O)n2Cc1cc(=O)n2ccccc2n1	inactive: 0.275%	–
CC1CCCN(C(=O)c2cc3c(=O)n(C)c4ccccc4c3s2)C1 (stereo not given)	inactive: 2.73%	–
O=C(NCc1ccco1)c1ccc(Cn2c(SCc3ccc(F)cc3)nc3cccnc32)cc1	inactive: -17.7%	–
CCOC(=O)c1ccccc1NC(=O)CSc1nc2ccncc2[nH]1	inactive: 12.3%	–
COc1ccc(C(=O)c2cn(Cc3ccccc3F)c3cc4c(cc3c2=O)OCO4)cc1	inactive: -27.6%	–
O=c1cc(-c2ccccc2)n2c(SCc3ccc(Cl)cc3)nnc2[nH]1	inactive: 2.3%	–
COc1ccc(CNC(=O)Cn2nnc(-c3ccc(C(F)(F)F)cc3)n2)cc1	inactive: 4.73%	–
COc1ccc(-n2c3c(cc(-c4nc(-c5ccc(C)cc5)cs4)c2=O)C(=O)CC(C)(C)C3)cc1	inactive: 13.7%	–
CC(C)C(=O)NCC(c1ccc2c(c1)OCO2)N1CCN(c2ccccc2F)CC1 (stereo not given)	inactive: -18.1%	–
COc1ccccc1C(=O)Nc1ccc2oc(-c3cccc(Cl)c3Cl)nc2c1	inactive: -2.2%	–
CCOC(=O)c1c(C)oc2ncnc(Nc3ccc(CC)cc3)c12	inactive: 0.598%	–
CC1CCN(C(=O)CN2CCSc3ccc(S(=O)(=O)N(C)C)cc32)CC1	inactive: 9.11%	–
O=C(C1CCN(S(=O)(=O)c2cccc3nonc23)CC1)N1CCN(c2ccc(F)cc2)CC1	inactive: 0.452%	–
CC(=O)c1ccc(NC(=O)C(Cc2ccccc2)NS(=O)(=O)c2ccc3c(c2)CCC(=O)N3)cc1 (stereo not given)	inactive: 0.101%	–
COc1ccc(/C=C/c2nc(-c3ccccc3O)n(-c3ccccc3)n2)cc1OC	inactive: -2.63%	–
CCC(=O)N1CCc2cc(S(=O)(=O)NCCC(=O)NC(C)c3ccccc3)ccc21 (stereo not given)	inactive: -2.94%	–
CCOC(=O)CC(NC(=O)c1cc2cc(OC)ccc2oc1=O)c1ccc(OC)cc1 (stereo not given)	inactive: 2.33%	–
Cc1cccc(C(=O)Nc2nnc(S(=O)(=O)N3CCC(C)CC3)s2)c1	inactive: 6.66%	–
O=C(CCC(=O)N1CC2CCCN2c2ccccc21)NCc1ccccc1F (stereo not given)	inactive: -1.68%	–
Cc1cccc(OCC(=O)OCc2cc(=O)n3nc(C4CC4)sc3n2)c1	inactive: -13.6%	–
O=S(=O)(NCCc1ccc(Cl)cc1)c1ccc(N2CCCCS2(=O)=O)cc1	inactive: 5.34%	–
COc1ccc(C2=C(C)C(=O)N(Cc3ccc(C(=O)NCc4ccccc4C)cc3)S2(=O)=O)cc1	inactive: 4.36%	–
